# Experimental data: the supplement of paper PMC9446081
# Hit rate of the full screen: of about 39,000 compounds, about 220 (0.56%) showed activity. The list shows a part of the results.
# Test system: Escherichia coli K-12 BW25113
# Experiment: relative growth (OD600 normalised to plate interquartile mean) (fraction); higher = less growth inhibition, active = 0.2 or less
# Settings: 50 µM; LB; incubation time: overnight (16-24 h)
# 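Note: static incubation at 37 °C against the wild-type strain, values averaged over two biological replicates.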
row,Structure (SMILES),relative growth
1,N[C@@H](CC(=O)Nc1ccc(Cl)cc1)C(=O)O,inactive: 1.06
2,CO[C@@H]1CN(C)C(=O)c2cc(NS(=O)(=O)CC(F)(F)F)ccc2OC[C@H](C)N(Cc2cccnc2)C[C@@H]1C,inactive: 0.971
3,COc1ccc(CN(C)C[C@@H]2OCCCC[C@@H](C)Oc3ccc(NC(=O)Nc4ccc(C(F)(F)F)cc4)cc3C(=O)N([C@@H](C)CO)C[C@@H]2C)cc1,inactive: 0.979
4,C[C@@H]1CN([C@@H](C)CO)S(=O)(=O)c2ccc(C#Cc3ccccc3F)cc2O[C@H]1CN(C)CC1CCOCC1,inactive: 1
5,C[C@H](CO)N1C[C@H](C)[C@@H](CN(C)C(=O)Nc2ccccc2)Oc2ccc(NC(=O)CCN3CCOCC3)cc2CC1=O,inactive: 0.981
6,C[C@H]1CN([C@@H](C)CO)C(=O)c2cccc(NS(=O)(=O)c3cccs3)c2O[C@H]1CN(C)Cc1ccc(-c2ccccc2)cc1,inactive: 1.02
7,CCn1cc(C(=O)O)c(=O)c2cc(F)c(N3CCN(C(=S)Nc4cc(C(F)(F)F)ccc4Cl)CC3)cc21,active: 0.0858
8,C[C@@H]1CCCCO[C@@H](CN(C)S(=O)(=O)c2cn(C)cn2)[C@@H](C)CN([C@H](C)CO)C(=O)c2cc(NC(=O)Nc3cccc4ccccc34)ccc2O1,inactive: 1.02
9,CC(C)NC(=O)Nc1ccc2c(c1)CC(=O)N([C@@H](C)CO)C[C@@H](C)[C@H](CN(C)Cc1ccc(-c3ccccc3)cc1)O2,inactive: 1.01
10,C[C@@H]1CCCCO[C@@H](CN(C)C(=O)Nc2ccc(F)cc2)[C@@H](C)CN([C@@H](C)CO)C(=O)c2cc(NC(=O)CCC(F)(F)F)ccc2O1,inactive: 0.993
11,C[C@@H](NS(=O)(=O)c1cccc(F)c1)C(=O)O,inactive: 1.03
12,CCO[C@H]1OC(C(=O)N2CCN(Cc3ccc4c(c3)OCO4)CC2)=C[C@@H](c2csc3ccccc23)[C@@H]1CCCOC(=O)NCCCCCC(=O)NO,inactive: 0.982
13,Cc1ccc(S(=O)(=O)N[C@@H](Cc2ccccc2)C(=O)NCCn2cc(C(=O)NO)nn2)cc1,inactive: 1
14,C[C@@H]1CN([C@H](C)CO)C(=O)c2cc(NC(=O)Cn3cnnn3)ccc2O[C@H]1CN(C)C(=O)Nc1ccc(F)cc1,inactive: 0.981
15,COc1ccc(S(=O)(=O)N(C)C[C@@H]2Oc3ccc(NC(=O)C4CC4)cc3CC(=O)N([C@@H](C)CO)C[C@@H]2C)cc1,inactive: 0.986
16,COc1ccc(NC(=O)Nc2ccc3c(c2)C(=O)N([C@H](C)CO)C[C@H](C)[C@H](CN(C)C(=O)NC2CCCCC2)OCCCC[C@@H](C)O3)cc1,inactive: 0.955
